Experimental findings from ChEMBL document CHEMBL4888484, “Replenishing the malaria drug discovery pipeline: Screening and hit evaluation of the MMV Hit Generation Library 1 (HGL1) against asexual blood stage Plasmodium falciparum ,using a nano luciferase reporter read-out” (2022) are described below.

Among all 150,000 compounds or so, about 540 (0.36%) showed an effect of 50% or more. Some of the results follow.

The assay relates to Plasmodium falciparum. The experiment in a line: Primary screen in NF54 nanoGlo assay, in single point, at 2uM, 72h; a lower Z score goes with more inhibition. The class given is functional, Erythrocyte. As to conditions: timepoint 72 hour.
For the compound `CCOc1ccccc1-c1ncnc2c(C)csc12`, the “% Inhibition” value is listed as -9% and the Z score turned out to be 0.8.
Regarding `Cc1ccc(CNCc2scnc2C)c(OC[C@H]2CCOC2)c1`, the “% Inhibition” value is -6% and the Z score is 0.62.
Regarding `CC(C)(C)CC(=O)N1C[C@@H]2C[C@H]1C(=O)Nc1ccccc1O2`, the “% Inhibition” value is on record as -7% and the Z score is 1.21.
On to `CCn1nc(C)c(C(=O)N2CC=C(c3ccc(C#N)cc3)CC2)c1C`, for which the “% Inhibition” value is recorded as -5% and the Z score is reported as 0.42.
`O=C(c1nc(N2CCOCC2)ncc1Cl)N1CCc2sccc2C1`: the “% Inhibition” value came to 6% and the Z score is -0.76.
On to `CCN(C1CC1)S(=O)(=O)c1ccc2ccccc2c1`, for which the “% Inhibition” value is listed as -4% and the Z score is listed as 0.42.
In the same order, the values of `CCN1C[C@@H](CNC(=O)c2cc(NS(=O)(=O)CC)cc3nc(-c4ccccc4)n(C)c23)CC1=O` are 5% and -0.64.
In the same order, the values of `COc1ccc(-c2n[nH]c(C(=O)N(C)C)n2)c(C)c1` are 1% and -0.18.
As for `CCS(=O)(=O)N(C)Cc1cccnc1OC`, the “% Inhibition” value is -9% and the Z score is 1.22.
On to `CC(F)(F)CC(=O)N[C@H]1CC[C@@H](C#N)C1`, for which the “% Inhibition” value is recorded as -4% and the Z score was found to be 0.43.
As for `CN(C)c1ncc(CNC2(CNC(=O)OC(C)(C)C)CCCC2)cn1`, the “% Inhibition” value came out at 1% and the Z score is on record as -0.12.
With `Cc1ccc2sc(CNC(=O)OC3CCC3)nc2c1`, the “% Inhibition” value worked out at 0% and the Z score was 0.07.
For the compound `CCc1c(C(=O)N(Cc2ccccc2)Cc2nccs2)c(=O)cc(C)n1C`, the “% Inhibition” value is -9% and the Z score came to 1.62.
With `O=C1C2CCCC1CC(C(=O)N1CCN(c3ccccc3)CC1)C2` (configuration not stated), the “% Inhibition” value is on record as -2% and the Z score is 0.19.
Take `COc1cc(-c2nc(C(=O)Nc3ccc(C)cc3)cs2)ccc1OCc1c(F)cccc1F`: the “% Inhibition” value worked out at 7% and the Z score is -0.74.
For the compound `CCn1nc([C@@H]2CCCN2Cc2ccsc2)c2c1CCOC2`, the “% Inhibition” value is given as -7% and the Z score was 0.67.
In the same order, the values of `CC(=O)N1CCc2cc(S(=O)(=O)N(C)Cc3cc(C)on3)ccc21` are 0% and 0.05.
In the same order, the values of `O=C(NCc1noc(-c2ccccc2)n1)c1cc(CO)ccn1` are -3% and 0.49.
As for `Cc1cn2cc(C(=O)NCCc3csc(N)n3)ccc2n1`, the “% Inhibition” value is -9% and the Z score is 1.43.
With `CCC[C@H]1COCCN1C(=O)c1cc(CN(CC)CC)c(CC)o1`, the “% Inhibition” value is 6% and the Z score is on record as -1.08.
In the same order, the values of `CCOCc1c(-c2ccc(Cl)cc2)c2cc3c(cc2[nH]c1=O)OCCO3` are 33% and -3.73.
In the same order, the values of `Cc1noc(C)c1CCNC1CCCC(C(F)(F)F)C1` (configuration not stated) are -3% and 0.48.
Consider `Cc1cnccc1N1CCC[C@H](CS(C)(=O)=O)C1`, for which the “% Inhibition” value was -19% and the Z score was determined as 2.81.
On to `O=C(Nc1cccnc1)C(=O)N1CCC[C@H](NCc2ccccc2)C1`, for which the “% Inhibition” value is on record as -16% and the Z score is 1.72.
In the same order, the values of `N#Cc1ccc(COc2ccc3c(c2)OCO3)c(F)c1` are -19% and 2.2.
In the same order, the values of `Cc1ccc(C(=O)NCC2=CCN(CCn3cccn3)CC2)cc1` are -6% and 0.6.
Regarding `CCCN(Cc1ccc(C(=O)N[C@H]2CCCc3ccccc32)c(=O)[nH]1)C1CC1`, the “% Inhibition” value was -14% and the Z score is reported as 2.17.
As for `COc1ccc2cc(C(=O)N3CC[C@H](Cc4ccc(CO)cc4)C3)n(C)c2c1`, the “% Inhibition” value is reported as -21% and the Z score is 2.13.
On to `O=C(c1ccc(S(=O)(=O)N2CCOCC2)cc1)N(C(=O)N1CCCCC1)c1ccccc1`, for which the “% Inhibition” value was found to be 5% and the Z score is reported as -0.96.
Consider `C[C@@H](Cc1ccc(N(C)C)cc1)NC(=O)c1c[nH]nc1-c1cccc(F)c1`, for which the “% Inhibition” value is -14% and the Z score is 1.95.
As for `CC1(C)CS(=O)(=O)N(c2cccc(C(=O)N3CCN(c4ccccn4)CC3)c2)C1=O`, the “% Inhibition” value is recorded as -2% and the Z score turned out to be 0.26.
On to `COc1cc(CNCc2cnc(-c3ccccc3)s2)ccc1C`, for which the “% Inhibition” value is listed as -19% and the Z score is on record as 2.05.
With `C[C@H]1CCCCN1CCCNC(=O)c1cc(-c2ccccc2F)nc2cc(C(C)(C)C)nn12`, the “% Inhibition” value is recorded as -2% and the Z score is 0.23.
Consider `O=C(c1ccc(Cl)o1)N1CCN(c2nccs2)CC1`, for which the “% Inhibition” value is -8% and the Z score turned out to be 1.08.
As for `Cc1nc(CN2CCc3c(c(C(=O)N4CCc5ccccc5C4)nn3Cc3ccccn3)C2)no1`, the “% Inhibition” value is given as -1% and the Z score is 0.26.
Turning to `CNc1ncccc1C(=O)N[C@H]1COC[C@@H]1OC`, the “% Inhibition” value is -7% and the Z score is 1.02.
Turning to `CCN(C)S(=O)(=O)NCc1csc(N)n1`, the “% Inhibition” value is recorded as -11% and the Z score amounted to 1.09.
As for `COC[C@@H]1[C@H](C(=O)NCCCN2CCCC2=O)CCCN1Cc1ccccc1`, the “% Inhibition” value was 2% and the Z score is listed as -0.26.
Turning to `COc1ccc(CCn2c(C3CCC3)n[nH]c2=O)cc1`, the “% Inhibition” value is listed as -10% and the Z score was found to be 1.23.
Regarding `O=C(c1ccccn1)N1CC[C@H](Cc2noc(C3CC3)n2)C1`, the “% Inhibition” value turned out to be 10% and the Z score was -1.84.
The corresponding values for `COC(=O)C1CCN(C(=O)CCc2ccc(-c3ccc(C)cc3C)n2-c2ccc(CC#N)cc2)CC1` are -6% and 0.89.
Take `O=C(c1ccc(-c2c[nH]c3ccccc23)o1)N1CCOCC1`: the “% Inhibition” value was -22% and the Z score turned out to be 2.8.
As for `Cc1cnc(CN2C[C@]3(CCCN(c4cnccn4)C3)CCC2=O)cn1`, the “% Inhibition” value is given as -1% and the Z score is listed as 0.12.
In the same order, the values of `CC1(C)C(Nc2ncnc3[nH]ncc23)C2CCOC21` (configuration not stated) are -12% and 1.05.
As for `C=Cn1cc(CNc2ccc(-c3cn4c(n3)CCCC4)cc2)cn1`, the “% Inhibition” value is on record as -19% and the Z score is 1.99.
On to `Cn1cc(Cl)cc1C(=O)N1CCS(=O)(=O)C[C@H]1C1CCC1`, for which the “% Inhibition” value was -9% and the Z score came to 1.46.
On to `CC(CNS(=O)(=O)C1CCOC1C)c1cccs1` (configuration not stated), for which the “% Inhibition” value is reported as -10% and the Z score was 1.34.
The corresponding values for `O=C(c1ccco1)N1CCN(C2CCCCCC2)CC1` are 31% and -3.95.
As to `C[C@@H](Cn1cncn1)NC(=O)c1ccc(=O)n(C)c1`, the “% Inhibition” value is on record as 0% and the Z score is 0.
In the same order, the values of `O=C(NCc1ccccc1)NCC1CCOCC1` are -4% and 0.48.
The corresponding values for `O=C1CCN(C(=O)c2ccco2)CCOCCN1` are -1% and 0.13.
`Cc1nc(C(=O)N2c3ccccc3NC(=O)C[C@@H]2C)cs1`: the “% Inhibition” value was -3% and the Z score is given as 0.53.
Consider `CN1CCN(Cc2ccc(-c3ccccc3)cc2)CCC1=O`, for which the “% Inhibition” value came to 6% and the Z score is listed as -1.02.
The corresponding values for `COc1cccc(C(=O)Nc2ccc(OCc3nnc(-c4ccccc4)o3)cc2)c1OC` are -11% and 1.31.
For the compound `COc1ccc(Cl)cc1C(=O)Nc1cc(C2CC2)nn1-c1nc(C)cc(=O)[nH]1`, the “% Inhibition” value is reported as 63% and the Z score is on record as -6.61.
The corresponding values for `Cc1cc(S(=O)(=O)N2C[C@@H]3C[C@@]2(C(=O)O)[C@@H]3C)sc1C` are -6% and 1.15.
In the same order, the values of `CCCN1CCN(CCNc2nnc(-c3nc(C4CC4)no3)c3ccccc23)CC1` are 4% and -0.47.
As for `O=C(c1cc(-c2ccco2)nc2c(Cl)cccc12)N1CCCOCC1`, the “% Inhibition” value is -17% and the Z score stood at 1.59.
As for `O=C(Nc1cccc2ncccc12)C(c1ccccc1)c1ccccc1`, the “% Inhibition” value was 12% and the Z score is on record as -1.64.
Turning to `CN1CCCCC[C@H]1c1ncnn1C1CCCCC1`, the “% Inhibition” value is -16% and the Z score amounted to 1.74.
The corresponding values for `COCCCn1cnc2c(-c3ccccc3)cn(CC(=O)NCc3ccc4c(c3)OCO4)c2c1=O` are -2% and 0.31.
The corresponding values for `COc1cc(C)ccc1OCCN(C)C` are -12% and 1.67.
With `CCC(C)C(OC)C(=O)Nc1nn(C)cc1C#N` (configuration not stated), the “% Inhibition” value was -4% and the Z score amounted to 0.73.
Take `CC1CCC(NC2CCN(Cc3ccccc3)CC2)CC1` (configuration not stated): the “% Inhibition” value came out at 2% and the Z score is listed as -0.3.
On to `Cc1cc(CNC2CCC3(CC2)CCN(C(=O)OC(C)(C)C)C3)on1` (configuration not stated), for which the “% Inhibition” value is listed as -14% and the Z score is reported as 2.95.
Regarding `Cc1c(NC(=O)c2n[nH]cc2Br)c(=O)n(-c2ccccc2)n1C`, the “% Inhibition” value is 30% and the Z score is -0.74.
The corresponding values for `CO[C@H]1CN(C)C[C@@H]1NS(=O)(=O)CC1CCCC1` are -14% and 2.69.
With `c1nc2nc3c(c(N4CC[C@H]5CCCC[C@@H]5C4)n2n1)CCCC3`, the “% Inhibition” value was -1% and the Z score is reported as 0.24.
With `C[C@@H](Cn1cncn1)N1CCC(n2cc(-c3ccc(F)cc3)nn2)CC1`, the “% Inhibition” value stood at 1% and the Z score was -0.24.
As to `COCCCN1C(=O)CC(CC(=O)N(Cc2ccccc2)C[C@@H]2CCC(=O)N2)(c2ccccc2)C1=O` (some centres not stated), the “% Inhibition” value is -2% and the Z score was found to be 0.34.
As to `Cc1onc(OC(F)F)c1NC(=O)Cc1ccn(C)n1`, the “% Inhibition” value was -5% and the Z score worked out at 0.6.
Regarding `CC(C)(C)OC(=O)N1CC2(CC2)c2ccccc2[C@@H]1C(=O)O`, the “% Inhibition” value is given as -7% and the Z score is on record as 1.32.
As for `CCCCNCCCOc1cccc(Cl)c1Cl`, the “% Inhibition” value is on record as -9% and the Z score turned out to be 1.76.
In the same order, the values of `COc1ccc(N2CCN(C(=O)Cn3c(=O)c4nncn4c4ncccc43)CC2)cc1` are -10% and 1.27.
In the same order, the values of `C[C@H](Oc1ccccc1Cl)C(=O)N(C)CC1(O)CCCC1` are 2% and -0.27.
Regarding `COc1ccc(CNc2nc(NCc3ccc(OC)c(OC)c3)n(S(=O)(=O)c3ccc(C)cc3)n2)cc1OC`, the “% Inhibition” value was -13% and the Z score is 1.9.
Take `CC(=O)NCCOc1cc(C)ccc1C`: the “% Inhibition” value amounted to 30% and the Z score was -3.35.
`Cc1ccc(-c2cc(-c3ccccc3Cl)c3c(N)c(C(=O)Nc4ccc(Oc5ccccc5)cc4)sc3n2)cc1`: the “% Inhibition” value is 5% and the Z score is reported as -0.57.
`CC[C@H]1[C@@H](NC(=O)c2ccc(Cl)o2)[C@H]2CCO[C@H]21`: the “% Inhibition” value is -14% and the Z score is recorded as 2.22.
As for `CN(CCC(=O)Nc1ccccc1Cl)Cc1ncccn1`, the “% Inhibition” value is -33% and the Z score was 3.91.
Regarding `Cc1cnc(C)n1CCNC(=O)C1CCCC1`, the “% Inhibition” value is -2% and the Z score turned out to be 0.27.
Take `COC1CC2C(=O)N(C3CCN(CC(F)(F)F)C3=O)C(=O)N2C1` (configuration not stated): the “% Inhibition” value was -12% and the Z score is given as 1.67.
The corresponding values for `COc1ccc(NC(=O)CCc2c(C)noc2C)c2nonc12` are -3% and 0.65.
For `O=C(CNC1CCCC1)Nc1ccccc1Cl`, the “% Inhibition” value is recorded as -9% and the Z score amounted to 1.4.
In the same order, the values of `C[C@H]1OCCN[C@@H]1C(=O)N(C)CC1CC1` are -8% and 0.95.
On to `O=C(c1ccco1)N1CC[C@H](Oc2cccc3cccnc23)C1`, for which the “% Inhibition” value is -15% and the Z score is given as 2.77.

A word on the % Inhibition: it is the relative decrease from the control value, in per cent.
